Measurements taken from PubChem BioAssay AID686971 (National Center for Advancing Translational Sciences (NCATS), 2013).
The whole screen tested about 360,000 compounds, of which about 7,500 (2.1%) were called active. Inconclusive means that the source gave no clear call. Such entries were picked first, then a sample of the others. Calls follow the shape of the dose curve; as a rule, active = well fitted cell-killing curve with a large enough effect; inconclusive = small, poorly fitted or top-dose-only effect, or effect the other way, or another doubt; inactive = no such curve, though single readings can be large or run the other way. Potencies of inconclusive entries are left out as doubtful fits.

test: qHTS for induction of synthetic lethality in tumor cells producing 2HG: qHTS for the HT-1080-IDH1KD cell line; conditions: HT-1080 IDH1 knockdown viability, ATP luminescence, 48 h; series mostly up to 46.1 µM
Procedure, shortened: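 Luminescent ATP read-out (CellTiter-Glo, 10 min at room temperature) after 48 h compound exposure at 37 °C gave viability of IDH1-knockdown HT-1080 cells. Activity was normalised to DMSO and cell-free wells, then fitted as concentration-response curves.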
Potency is read from the fitted curve at half-maximal effect; tags tell the direction and shape of the fitted curve.

| SMILES | Potency |
| --- | --- |
| Nc1cccc(-c2nc3ccc(C(=O)c4ccccc4)cc3[nH]2)c1 | active: 10.3 µM |
| Cc1ccc(C)c(C(=O)COC(=O)c2ccccc2N2C(=O)C3C4CCC(C4)C3C2=O)c1 (stereo not given) | inactive |
| CCC(=O)N(Cc1cc2cc(OC)ccc2[nH]c1=O)c1cc(C)ccc1C | inactive |
| Cc1ccc(-c2nc3ccc(Cl)cn3c2Cc2cccc(Cl)c2)cc1 | inconclusive [cytotoxic, single point] |
| CCN1CCCC1CNC(=O)c1ccc2c(c1)N(Cc1cccc(Cl)c1)C(=O)c1ccccc1S2(=O)=O (stereo not given) | inconclusive [cytotoxic, single point] |
| COc1ccc2cc3cc(C(=O)NCc4cccs4)oc3nc2c1 | inconclusive [cytotoxic, partial curve] |
| COc1cc(CNCc2ccccn2)ccc1OCc1ccc(Cl)c(Cl)c1 | inconclusive [cytotoxic, single point] |
| Cc1cc(Cl)ccc1OCCCC(=O)NO | active: 20.6 µM |
| Cc1ccc(S(=O)(=O)N2CCCCC2CCNC(=O)C(=O)NCc2ccccc2)cc1 (stereo not given) | active: 6.51 µM |
| COc1ccc(Nc2nc(N3CCCC3)c3ccccc3n2)cc1 | inactive |
| C[C@H](CO)N1C[C@H](C)[C@@H](CN(C)C(=O)Nc2ccccc2)Oc2ccc(NC(=O)Nc3ccc(C(F)(F)F)cc3)cc2C1=O | inconclusive [cytotoxic, single point] |
| Cc1ccc(NC(=O)COc2cccc3ccc(C)nc23)c(Br)c1 | inactive |
| Cc1cc(NCC2CCCCC2)nc2ccccc12 | active: 7.31 µM |
| NS(=O)(=O)c1ccc(NC(=O)c2cc(-c3cccs3)nc3ccccc23)cc1 | inconclusive [cytotoxic, partial curve] |
| CN(C)S(=O)(=O)c1cccc(NC(=O)c2cccc(S(=O)(=O)N3CCc4ccccc43)c2)c1 | inconclusive [cytotoxic, single point] |
| COCCCNC(=O)Cc1c(C)c2c(cc(C)c3c(C(C)(C)C)coc32)oc1=O | active: 2.91 µM |
| COC(=O)c1ccc(NCc2cc(O)ccc2O)cc1 | active: 20.6 µM |
| COc1ccc(COc2cc(-c3cccc(OC)c3)nc3ccc(N)cc23)cc1 | active: 2.06 µM |
| COc1ccc(-c2cc(C)no2)cc1S(=O)(=O)NCC1CCN(Cc2cc(C)ccc2C)CC1 | inconclusive [cytotoxic, single point] |
| CCc1nc2c(OCc3ccc(OC(F)F)cc3)cccn2c1N(C)C(=O)c1ccc(OC)cc1 | inconclusive [cytotoxic, single point] |
